The source gives no read counts; variants with many changes may rest on few reads.
B1: LINE1-mini (parent)
chain: GGCAGAGCUCAACACAGCGUGGCAAAGUGGCUGUGGCUAGACUGCC

Variants of: B1
Experiment: self-cleavage, relative activity (ratio to wild type); higher = more cleavage; in vitro, sequencing; the parent is a self-cleaving ribozyme

Which self-cleavage does the source give for GGCAGAGGUCAACACAGCGUGGCAAAGUGGCUGUGGCUAGAAAGCC here?
Its self-cleavage is 0.02.

Which self-cleavage does the source give for GGCAGAGGUUAACACAGCGUGGCAAAGGAGCUGUGGAUAGACUGCC here?
Its self-cleavage is 0.19.

For GGCAGAGGUCAACACUGCGUGGCUAAGUGGCUGUGGCUGGACUGCC, which self-cleavage is on record?
Its self-cleavage is 0.04.

For GGCAGAGGUAAACACAACGUGGCAAGGUGGCUGGGGCUAGUCUGCC, which self-cleavage is on record?
The self-cleavage was 0.02.

For GGCAGAGGUCAACACAGUGUGGCAAAGUGACGGUGUCUAGACUGCC, which self-cleavage is on record?
Its self-cleavage is 0.05.

For GGCAGAGGUCAGCACAGCGUGGCAAAGUGGCUGUGGAUAGACUGCC, which self-cleavage is on record?
Its self-cleavage is 0.08.

With GGCAGAGGUCAACACAGCGUGGCAGACUGGCUGUGGCUAGACUGCC as the variant, how does the self-cleavage read?
Its self-cleavage is 0.01.

For GGCAGAGGUCAACACAGCGUGGCAAAGUGGCUGUGGCUGGACCCCC, which self-cleavage is on record?
Its self-cleavage is 0.04.

Which self-cleavage does the source give for GGCAGAGGUAAACACCCCGUGGCUACGUGGCUGUGGCUAGACUGCC here?
The self-cleavage was 0.01.

With GGCAGAGGUCAACAAAGCGUGGCAAGGUGGCUGUGGCUAGACUGCC as the variant, how does the self-cleavage read?
The self-cleavage was 0.26.

For GGCAGAGGUCAACUCAAGGUGGCAAAGUGGCUGUGGCUAGACUGCC, which self-cleavage is on record?
Its self-cleavage is 0.12.

With GGCAGAGGUCAACUCAGCGUGGCAAAGUGGCUGUGGCUAGCCUGCC as the variant, how does the self-cleavage read?
Its self-cleavage is 0.19.

Which self-cleavage does the source give for GGCAGAGGUCAACACGGCGUGCCAAAGUGGGUGUGGCUAGACUGCC here?
The self-cleavage was 0.02.

For GGCAGAGGUCAACACAGCGUGGGAAAGUGUCUGUGGCGAGACUGUC, which self-cleavage is on record?
Its self-cleavage is 0.06.

For GGCAGAGGUCAACACAGAGUGGCAGAGUGGCUGUGGCUAGACUGCA, which self-cleavage is on record?
The self-cleavage was 0.07.

For GGCAGAGGUAAACACAGCGUGGAAAAGUGGCUGUGGCUAGAUUGCC, which self-cleavage is on record?
The self-cleavage was 0.01.

Which self-cleavage does the source give for GGCAGAGGUCAAAACAGCGUUGCCAAGUGGCUGUGGCUAGACUGCC here?
The self-cleavage was 0.03.

Which self-cleavage does the source give for GGCAGAGGUAAACACAGCCUGGCAAAGUGGCUGUGGCUAGACCGCC here?
Its self-cleavage is 0.

With GGCAGAGGUCAGCACAGCGUGGCAAAAUGGCUGUGGGUAGACUGCC as the variant, how does the self-cleavage read?
The self-cleavage was 0.02.

With GGCAGAGGUUGGCACAGCGUGGCAAAGUGGCUGUGGCUAGACUGCC as the variant, how does the self-cleavage read?
The self-cleavage was 0.01.

For GGCAGAGGUCAAUACAGCGUGGCAAAGUGGCCGUGGCUAUACUGCC, which self-cleavage is on record?
Its self-cleavage is 0.03.

With GGCAGAGGUCAACAGAGCGUGGCAAAGUGGCUGUGGCUAGAUUGCC as the variant, how does the self-cleavage read?
Its self-cleavage is 0.01.

Which self-cleavage does the source give for GGCAGAGGUCAACAGAGCGUGGCAAAGAGGCUGUGGCUAGACUGCC here?
Its self-cleavage is 0.02.

Which self-cleavage does the source give for GGCAGAGGUCAACACACCGUGGCAAAGUGGCUGGGGCUAGACUGCC here?
Its self-cleavage is 0.06.

For GGCAGAGGUCAACACAGUAUGGCAAAGUGGCUGCGGCUAGACUGCC, which self-cleavage is on record?
Its self-cleavage is 0.04.

With GGCAGAGGUCAACAGAGCGUGACAACGUGGCUGUGGCUAGACUGCA as the variant, how does the self-cleavage read?
Its self-cleavage is 0.02.

Which self-cleavage does the source give for GGCAGAGGUCAACACAGCGUGGCAUAGUGGCUGUGGCUAAACUGCC here?
The self-cleavage was 0.1.

With GGCAGAGGUCAACACAGCGUGGCAAGGUGGUUGUGGCUAGACUGCC as the variant, how does the self-cleavage read?
The self-cleavage was 0.04.

With GGCAGAGGUAAAUACAGCGCGGCAAAGUGGCUGUGGCUAGACUGCA as the variant, how does the self-cleavage read?
The self-cleavage was 0.01.

For GGCAGAGGUCAACACACCGUGGCAAAGGGGCUGUGGCGAGACUGCC, which self-cleavage is on record?
The self-cleavage was 0.05.

Which self-cleavage does the source give for GGCAGAGGUCAACACAUCCUGGCAAAGUGGCUGUGGCUAGACUGCC here?
The self-cleavage was 0.03.

Which self-cleavage does the source give for GGCAGAGGUCAACUCAGCGUGGCAUAGUGGCUGUGGCUAGACUGCC here?
Its self-cleavage is 0.02.

Which self-cleavage does the source give for GGCAGAGGUUAACACGGCGUGGCAAAGUGACUGUGGCUAGACUGCC here?
Its self-cleavage is 0.04.

For GGCAGAGGUCAACACAGCGUGGCAAAGUGGCUGUGGAUAGACUACC, which self-cleavage is on record?
The self-cleavage was 0.02.

For GGCAGAGGUCAAGACAGCGGGGCAAAGAGGCUGUAGCUAGACUGCC, which self-cleavage is on record?
Its self-cleavage is 0.08.

Which self-cleavage does the source give for GGCAGAGGUCAAGCCAGCGUGGCAAUGUGGCUGUGGCUAGACUGCC here?
The self-cleavage was 0.01.

With GGCAGAGGUCAAUACAGCGUGGAAAAGUGGCUGUGGCUAGACUGCC as the variant, how does the self-cleavage read?
The self-cleavage was 0.06.

For GGCAGAGGUAAACACAGCGUGUCAAAGUGGCUGUGGCUAGACUGCC, which self-cleavage is on record?
The self-cleavage was 0.02.

With GGCAGAGGUCAACUCAGCGUGGCAAAGUGCCUGUGGCUAGACUGCC as the variant, how does the self-cleavage read?
Its self-cleavage is 0.01.

With GGCAGAGGUCAACACGUCUUGGCAAAGUGGCUGUGGCUAGACUGCC as the variant, how does the self-cleavage read?
The self-cleavage was 0.09.

For GGCAGAGGUCAACACAGCGUGGCCAAGUGGGUGUGGCUAGACUGCC, which self-cleavage is on record?
Its self-cleavage is 0.05.

Which self-cleavage does the source give for GGCAGAGGUAAACACAUCGUGGCAAAGUGGCUGUGGCUAGACUGCC here?
Its self-cleavage is 0.01.

Which self-cleavage does the source give for GGCAGAGGUCAACACAGCGUGGCAAUGUGGCUGUGGCUAGACUGGC here?
Its self-cleavage is 0.07.

With GGCAGAGGUCAACGCAGCGUGGCAAAGUGGCAGUGGCUAGAGUGCC as the variant, how does the self-cleavage read?
The self-cleavage was 0.02.

Which self-cleavage does the source give for GGCAGAGGUCAACACAGCGUGGUAAAGUGGCUGUUGCUAGACUGCC here?
Its self-cleavage is 0.15.

For GGCAGAGGUCAACACAGAGUCGCAAAGUGGCUGUGGCUAGACUGCC, which self-cleavage is on record?
Its self-cleavage is 0.04.

For GGCAGAGGUCAACACGGCGUGGCAAAGUGGCGGUGUCUAGUCUGCC, which self-cleavage is on record?
The self-cleavage was 0.02.

For GGCAGAGGUCAGUACAGCGUGGCAAAGUGGCUGUGGCUAGACUGCC, which self-cleavage is on record?
Its self-cleavage is 0.03.

With GGCAGAGGUCAACACAGCGUGGUAAAGUGGCUGUGGCUAGACUAGC as the variant, how does the self-cleavage read?
The self-cleavage was 0.02.

Which self-cleavage does the source give for GGCAGAGGUCAACACAUCGUUGCAAAGUGCCUGUGGCUAGACUGCU here?
The self-cleavage was 0.02.

Which self-cleavage does the source give for GGCAGAGGUCAACACAUCGUGGCAAAGUGGUUGUGGCUAGACUGCC here?
The self-cleavage was 0.03.

Which self-cleavage does the source give for GGCAGAGGUCAACAGAGUGUGACAAAAUGGCUGUGGCUAGACCGCC here?
Its self-cleavage is 0.01.

Which self-cleavage does the source give for GGCAGAGGUCAACUCCGCGUGGCAAAGUGGCUGUGGCUAGACUGCC here?
Its self-cleavage is 0.

Which self-cleavage does the source give for GGCAGAGGUCAACACAGAGUGGCAAAAUGGCUGUGGCUAGACUGCC here?
Its self-cleavage is 0.01.

For GGCAGAGGUCAACACAACGUGGCAAAGUGGCUGUGGCUAUACUGCC, which self-cleavage is on record?
Its self-cleavage is 0.66.

Which self-cleavage does the source give for GGCAGAGGUCAACACAACGUGGCAAAGUGGGUGUGGUUAGACUGCC here?
The self-cleavage was 0.06.
